From the RNAGym collection of RNA variant scans (doi:10.1093/nar/gkz1192)
Read counts are not given, so values of variants with three or more changes are uncertain.

B1: CPEB3 Ribozyme (parent)
chain: UAACAGGGGGCCACAGCAGAAGCGUUCACGUCGCAGCCCCUGUCAGAUUCUGGUGAAUCUGCGAAUUCUGCUGUAUAUCUC

Variants of: B1
Test: self-cleavage, relative activity (ratio to wild type); higher = more cleavage; in vitro, sequencing
Outline: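 Relative activity compares each variant's cleaved/total read fraction with that of the unmutated ribozyme. To get these fractions, barcoded CPEB3 ribozyme libraries from rounds of error-prone PCR were transcribed with T7 RNA polymerase for 5 hours at 37°C and then given 15 min of DNase I treatment before EDTA was added. The RNAs were reverse transcribed with template switching and sequenced on Illumina, and DNA sequencing linked barcodes to variants. A minimum of 5 reads applied, and three batches were averaged.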

Variant | self-cleavage
A13U C62A A65G | 0.19
A13U G16A U25C U60C A65G | 0.13
A13U G16A U31C A35U U72A U74C U80C | 0.06
A13U G16A U54A | 0.44
A13U G19U A56G A57G | 0.09
A13U G19U U41C | 0.08
A13U G24A U48C A57G | 0.09
A13U G24A U51C U60C A64G U74C | 0.1
A13U G24C U31A U48C A64G U69A | 0.07
A13U G24U A28U U51A U60C | 0.06
A13U G30A A35G U78C | 0.1
A13U G33A A64G U66C | 0.13
A13U G33C U78A | 0.17
A13U G33U A47G | 0.09
A13U U25A A56U U78C | 0.06
A13U U25A G33A C62U U74A | 0.09
A13U U25A U43C | 0.28
A13U U25C A35U C38A A64U U72G U78G | 0.13
A13U U25C A56G U60C | 0.14
A13U U25C A57G U78C | 0.16
A13U U25C G33A | 0.14

Variant | self-cleavage
A13U U25C U31C A45G | 0.15
A13U U25C U31C A47G U67A U78C | 0.05
A13U U25C U43C A64U U76A | 0.09
A13U U25C U49A A56G | 0.07
A13U U26A A56G | 0.55
A13U U26A C32U C44U A65G U69A U80C | 0.08
A13U U26A C34G U43C C62A U72A | 0.08
A13U U26A C38G A57G U78C | 0.19
A13U U26A C38G U51G A57G U74A A77G | 0.04
A13U U26A G30A U54A | 0.07
A13U U26A U43C U69C | 0.19
A13U U26A U78A | 1.05
A13U U26C A45G A57G | 0.15
A13U U26C C29G C39U U67A U76C | 0.16
A13U U26C C68A | 0.17
A13U U26C U31A C38U U41A U48C A56U | 0.07
A13U U26C U31C U51C A56G | 0.15
A13U U26C U49C | 0.09
A13U U26C U78C | 0.25
A13U U26G U31C G42U A45C A56U C71A | 0.14
A13U U31A C68U U80C | 0.58

Variant | self-cleavage
A13U U31A U48A | 0.42
A13U U31C A35G A65U | 0.45
A13U U31C A47U U67C | 0.07
A13U U31C U41C A45U U54A U80A | 0.55
A13U U31C U43C G63A | 0.23
A13U U31C U60C U67C U78C | 0.19
A13U U31C U69C | 0.21
A13U U31C U78C | 1.12
A13U U31G U41A U58C U78A | 0.07
A13U U41A A56U A64G U72C A77G | 0.05
A13U U41A G52C U60A | 0.06
A13U U41A G73A | 0.21
A13U U41A U49C A64G U69A | 0.05
A13U U41A U51A A56U A64U | 0.05
A13U U41A U51C G73A | 0.27
A13U U41A U69A U78C U80A | 0.05
A13U U41C A47G A65G U72A | 0.84
A13U U41C A56G A64U | 0.36
A13U U41C A56G C59A U60A | 0.22
A13U U41C U54G C62U | 0.24
A13U U41C U72A | 0.38

Variant | self-cleavage
A13U U41C U78A | 1.24
A13U U43C A57G C62A A64G | 0.16
A13U U43C U60A U78C | 0.32
A13U U48C C68U U69C | 0.18
A13U U48C U49C | 0.39
A13U U48C U66C G73U A77U | 0.48
A13U U49A C50U | 0.56
A13U U49A C50U G63A A64G | 0.51
A13U U49A G53C U58A | 0.17
A13U U49C U54C U67C | 0.13
A13U U51A U69G | 0.9
A13U U51C U58C U60A | 0.12
A13U U51C U58G U72A U80C | 0.52
A13U U54C A56U U80C | 0.76
A13U U54C A64G U67C U72A U74C U78A | 0.07
A13U U54C A75U | 1.27
A13U U54C G55A U58C | 0.12
A13U U54C U60A U78C | 0.51
A13U U54G U60A C62A | 0.41
A13U U54G U72C | 1.21
A13U U60C G61U U67C | 0.19
